# In PubChem BioAssay AID504332 (National Center for Advancing Translational Sciences (NCATS), 2011):
# The campaign covered roughly 350,000 compounds. About 31,000 (8.9%) were called active. The inconclusive results got no clear call from the source; some entries with a clear call stand among them for comparison. Calls come from the whole dose curve; as a rule, active = well fitted inhibition curve with a large enough effect; inconclusive = small, poorly fitted or top-dose-only effect; inactive = no such curve, though single readings can be large or run the other way. Potencies of inconclusive entries are doubtful fits and often do not repeat.
# Target: Histone-lysine N-methyltransferase EHMT2 (Homo sapiens) (UniProt Q96KQ7)
# Test: qHTS Assay for Inhibitors of Histone Lysine Methyltransferase G9a; note: nearly all actives have a fitted effect of over 75% in size
# Conditions: G9a H3K9 monomethylation, AlphaScreen, 2 h; activity, negative = inhibition: at 59 µM (top of the series) unless noted
# Procedure, shortened: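 Signal arises when biotinylated H3K9 peptide, once monomethylated, bridges streptavidin donor and antibody-captured acceptor beads. Enzyme at 20 nM was preincubated 15 min with test compounds; peptide 500 nM and SAM 20 uM then reacted for 2 h.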
# % is set by controls: 0 for no effect and ±100 for the full control effect; potency is the fitted concentration of half-maximal effect; tags give direction and shape of the fitted curve.
# UniProt Q96KQ7, sequence (Q96KQ7 whole entry, looked up): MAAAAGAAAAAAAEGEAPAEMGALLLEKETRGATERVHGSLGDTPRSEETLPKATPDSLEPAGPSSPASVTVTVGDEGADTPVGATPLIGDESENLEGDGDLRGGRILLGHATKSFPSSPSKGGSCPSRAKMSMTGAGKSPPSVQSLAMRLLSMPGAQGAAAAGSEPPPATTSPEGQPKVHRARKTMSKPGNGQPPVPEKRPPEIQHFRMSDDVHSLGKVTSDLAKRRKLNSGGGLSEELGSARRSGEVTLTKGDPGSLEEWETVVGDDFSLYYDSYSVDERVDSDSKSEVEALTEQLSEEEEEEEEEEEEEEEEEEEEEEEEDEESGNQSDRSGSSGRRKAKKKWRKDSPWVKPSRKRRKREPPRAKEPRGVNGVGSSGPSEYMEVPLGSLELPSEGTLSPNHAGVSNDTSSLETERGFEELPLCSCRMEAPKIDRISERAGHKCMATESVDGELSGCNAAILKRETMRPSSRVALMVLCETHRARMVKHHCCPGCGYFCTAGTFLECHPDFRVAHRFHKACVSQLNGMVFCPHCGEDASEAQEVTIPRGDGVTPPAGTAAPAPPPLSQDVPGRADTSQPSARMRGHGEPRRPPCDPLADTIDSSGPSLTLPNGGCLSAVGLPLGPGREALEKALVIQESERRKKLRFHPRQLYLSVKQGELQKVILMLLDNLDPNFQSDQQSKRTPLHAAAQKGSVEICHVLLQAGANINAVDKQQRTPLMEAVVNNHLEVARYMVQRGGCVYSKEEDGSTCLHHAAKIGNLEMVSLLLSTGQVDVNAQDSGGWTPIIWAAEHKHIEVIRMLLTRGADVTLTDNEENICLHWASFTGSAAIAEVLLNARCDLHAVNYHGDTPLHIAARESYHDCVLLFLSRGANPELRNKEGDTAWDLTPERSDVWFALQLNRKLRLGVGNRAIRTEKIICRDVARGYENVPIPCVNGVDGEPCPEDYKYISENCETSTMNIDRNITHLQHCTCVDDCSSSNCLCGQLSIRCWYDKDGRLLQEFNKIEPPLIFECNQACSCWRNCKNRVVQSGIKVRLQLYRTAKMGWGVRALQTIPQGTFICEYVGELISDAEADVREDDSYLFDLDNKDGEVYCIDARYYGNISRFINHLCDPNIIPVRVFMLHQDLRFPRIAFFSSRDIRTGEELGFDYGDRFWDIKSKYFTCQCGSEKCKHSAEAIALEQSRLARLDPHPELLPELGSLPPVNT
SMILES,Potency,"activity, negative = inhibition"
O=c1cc(-c2ccccc2)oc2cc(OCc3ccccc3)cc(O)c12,inactive,–
COc1ccc(NS(=O)(=O)c2cccc(C(=O)N(C)CC(=O)Nc3ccc(C)cc3)c2)cc1,"inconclusive: 89.1 µM [inhibitor, single point]",–
COc1cccc(NC(=O)CN(C)C(=O)c2cc(-c3ccccc3)nc3ccccc23)c1,"inconclusive: 79.4 µM [inhibitor, partial curve, poor fit]",–
COC(=O)Cc1c(C)nc2nc(-c3ccco3)[nH]n2c1=O,"inconclusive: 28.2 µM [inhibitor, single point]",–
Cn1c2ccccc2c2cnn(CC(=O)Nc3ccc(Cl)cc3)c(=O)c21,inactive,–
CCCCn1c(NCc2ccccc2O)nc2ccccc21,inactive,–
CNC(=O)/C(C#N)=C/c1ccc(-c2ccc(OC)cc2[N+](=O)[O-])o1,"inconclusive: 8.91 µM [inhibitor, full curve, poor fit]",–
CCOc1ccc(C2c3c(oc4ccc(C)cc4c3=O)C(=O)N2Cc2ccc3c(c2)OCO3)cc1OC (configuration not stated),"inconclusive: 3.98 µM [inhibitor, single point]",–
CCN1CCN(c2ncnc3c2cnn3-c2ccccc2)CC1,"inconclusive: 89.1 µM [inhibitor, single point]",–
O=C(Oc1ccccc1C(=S)N1CCCCC1)c1cc([N+](=O)[O-])cc([N+](=O)[O-])c1,active: 3.55 µM,–
CCC(=O)N1CCc2cc(Br)cc(S(=O)(=O)N(C)c3ccc(OC)cc3OC)c21,"inconclusive: 63.1 µM [inhibitor, partial curve, poor fit]",–
CC(=O)C1=C(C)NC(SCC(=O)c2cc(Cl)ccc2Cl)=C(C#N)C1c1ccco1 (configuration not stated),active: 31.6 µM,–
O=[N+]([O-])c1ccc(NCCNCCOc2nonc2-c2ccccc2)c([N+](=O)[O-])c1,"inconclusive: 25.1 µM [inhibitor, full curve]",–
Cc1cc(C(=O)OCC(=O)N2CC(=O)Nc3ccccc32)c(C)n1-c1ccc(F)cc1,inactive,–
O=C1CC(Nc2ccc(N3CCOCC3)cc2)C(=O)N1c1cccc(C(F)(F)F)c1 (configuration not stated),active: 14.1 µM,–
CC(=O)c1cccc(NC(=S)Nc2cccc3ccccc23)c1,"inconclusive: 79.4 µM [inhibitor, single point]",–
Cc1cc(-c2csc3nc[nH]c(=S)c23)cc(C)c1C,"inconclusive: 10 µM [inhibitor, full curve]",–
COc1ccc(-c2cc(C(=O)Nc3cc(C)nn3-c3ccccc3)no2)cc1OC,inactive,–
CCOC(=O)C1(CCCc2ccccc2)CCN(C(=O)COC)CC1,"inconclusive: 39.8 µM [inhibitor, single point]",–
O=C(N/N=C/c1cccc(OC(=O)c2ccco2)c1)c1ccc(F)cc1,inactive,–
CCOC(=O)N/N=C/C=C/c1ccccc1,"inconclusive: 5.62 µM [inhibitor, full curve, poor fit]",–
NC(=O)CC(NC(=O)Cc1ccc(Br)cc1)c1ccc(N2CCC(Br)CC2)c([N+](=O)[O-])c1 (configuration not stated),–,inconclusive: -70.5% [inhibitor]
COc1ccc(/C(O)=C/C(=O)C(=O)Nc2c(C)n(C)n(-c3ccccc3)c2=O)cc1,"inconclusive: 8.91 µM [inhibitor, partial curve, poor fit]",–

SMILES,Potency,"activity, negative = inhibition"
COc1ccc2[nH]cc(CCNc3ccnc(-c4ccoc4)n3)c2c1,–,inactive: -38.7% [at 0.501 µM]
CCOC(=O)c1[nH]c(C)c(C(=O)/C=C/c2ccc(C(=O)O)cc2)c1C,inactive,–
O=C(NCc1ccco1)C1c2ccccc2Oc2ccccc21,"inconclusive: 50.1 µM [inhibitor, partial curve, poor fit]",–
COCCCN1C(=O)C(=O)/C(=C(/O)c2ccc(S(=O)(=O)N3CCOCC3)cc2)C1c1cccc(Cl)c1 (configuration not stated),"inconclusive: 79.4 µM [inhibitor, single point]",–
Cc1ccc(NC(=O)C2CC(=O)N(c3ccc4c(c3)OCCO4)C2)cc1S(=O)(=O)N1CCCCCC1 (configuration not stated),"inconclusive: 79.4 µM [inhibitor, partial curve, poor fit]",–
Cn1c(C(=O)NCCCN2CCOCC2)cc2c(=O)n(C)c3ccccc3c21,"inconclusive: 89.1 µM [inhibitor, single point]",–
O=C(OCc1ccc([N+](=O)[O-])cc1)C1CC(=O)N(Cc2ccccc2Cl)C1 (configuration not stated),"inconclusive: 50.1 µM [inhibitor, partial curve, poor fit]",–
COc1cc(Br)c(C2C(C#N)=C(N)Oc3n[nH]c(-c4cccnc4)c32)cc1OC (configuration not stated),"inconclusive: 89.1 µM [inhibitor, partial curve, poor fit]",–
O=C(CSC1=NCCS1)NC1CCCCC1,"inconclusive: 22.4 µM [inhibitor, single point]",–
O=C(NC(=S)Nc1ccc(NC(=O)c2cccs2)cc1)c1ccco1,inactive,–
O=S(=O)(NCc1ccc(F)cc1)c1ccc2[nH]c3c(c2c1)CCCC3,active: 8.91 µM,–
O=C(C1CCC(CNc2c(N3CCCCC3)c(=O)c2=O)CC1)N1CCc2ccccc2C1 (configuration not stated),"inconclusive: 63.1 µM [inhibitor, partial curve, poor fit]",–
O=C(CCCNS(=O)(=O)c1cccc2nsnc12)NCc1ccc(F)cc1,"inconclusive: 35.5 µM [inhibitor, partial curve, poor fit]",–
Cc1cc(/C=C(\C#N)C(N)=O)c(C)n1-c1ccc(N2CCOCC2)c([N+](=O)[O-])c1,"inconclusive: 70.8 µM [inhibitor, partial curve, poor fit]",–
COc1ccc2oc(=O)c(/C(C)=N/Nc3ccccc3)cc2c1,active: 12.6 µM,–
CC1CCCCN1C(=O)CN1CCSc2ccccc21 (configuration not stated),"inconclusive: 39.8 µM [inhibitor, partial curve, poor fit]",–
CCC(=O)Nc1ccc(CC)cc1-c1nc2ccccc2n(CC(=O)c2ccc(OC)cc2)c1=O,inactive,–
O=C(CSc1ncccc1-c1nc2ccccc2[nH]1)Nc1ccc2c(c1)OCCO2,"inconclusive: 28.2 µM [inhibitor, single point]",–
Cc1ccc(NC(=O)CN(C)C(=O)c2cc(-c3cccs3)nn2-c2ccccc2)cc1,–,inactive: 8.63% [at 12.7 µM]
COc1ccc(C(=O)N/N=C(\C)CC(=O)Nc2ccccn2)cc1OC,"inconclusive: 2.82 µM [inhibitor, partial curve, poor fit]",–
O=C1NC(c2ccccc2)C(C(=O)c2cccs2)=C1O (configuration not stated),–,inconclusive: -57.3% [inhibitor]
CCNc1nc(NCC)nc(N(CC)C(N)=S)n1,active: 1.78 µM,–
COc1cc(C(=O)N2CCN(c3cccc(C)c3C)CC2)cc(OC)c1OC,"inconclusive: 25.1 µM [inhibitor, single point]",–

SMILES,Potency,"activity, negative = inhibition"
CC(C)N1CC2=C(OC(N)=C(C#N)C2c2cccnc2)/C(=C/c2cccnc2)C1 (configuration not stated),"inconclusive: 31.6 µM [inhibitor, single point]",–
O=c1/c(=C/c2cccc3ccccc23)sc2ncnn12,"inconclusive: 15.8 µM [inhibitor, partial curve, poor fit]",–
O=C(CSCc1ccc(Cl)cc1)NCC1CCCO1 (configuration not stated),"inconclusive: 89.1 µM [inhibitor, single point]",–
C/C(=N/Nc1nc(-c2ccccc2)cc(-c2ccccc2)n1)c1ccc(N)cc1,active: 11.2 µM,–
CCc1ccccc1NC(=O)CCCn1c(=O)c2cccn2c2ccccc21,"inconclusive: 39.8 µM [inhibitor, partial curve, poor fit]",–
COc1ccc(C(=O)Oc2ccc(C(c3c(C)[nH][nH]c3=O)c3c(C)[nH][nH]c3=O)cc2)cc1,inactive,–
Cc1ccc2cc(/C=N/NC(=O)CN3CCCCC3)c(Cl)nc2c1,"inconclusive: 1.58 µM [inhibitor, partial curve, poor fit]",–
CCn1cc(CN2CCN(Cc3ccc(C)o3)C(CCO)C2)c2ccccc21 (configuration not stated),inactive,–
CC(=O)c1c(C)[nH]c(C2=NNC(=NCc3ccccc3)SC2)c1C,inactive,–
Cc1cc(S(=O)(=O)Nc2ccc3oc4c(c3c2)CCCC4)ccc1Cl,"inconclusive: 12.6 µM [inhibitor, partial curve, poor fit]",–
CCC(=O)Oc1ccc2c(c1)O/C(=C\c1ccco1)C2=O,active: 50.1 µM,–
COc1cc2c(C(=O)N3CCN(c4cccc(Cl)c4)CC3)cn(CC(C)C)c(=O)c2cc1OC,"inconclusive: 89.1 µM [inhibitor, single point]",–
O=C(O)CCCSCC(=O)Nc1ccccc1,"inconclusive: 11.2 µM [inhibitor, single point]",–
CCc1ccccc1N(C(C)=O)c1nc(CN=C=S)cs1,"inconclusive: 89.1 µM [inhibitor, single point]",–
Cn1c(=O)c2[nH]c(N3CCN(c4ccccc4)CC3)nc2n(C)c1=O,"inconclusive: 79.4 µM [inhibitor, single point]",–
CCOC(=O)c1c(/N=C/c2cc(C)ccc2O)sc2c1CCN(C)C2,"inconclusive: 20 µM [inhibitor, single point]",–
COCCNS(=O)(=O)c1cc2[nH]c3c(c2cc1C)C(=O)CC(C)(C)C3,"inconclusive: 1 µM [inhibitor, partial curve, poor fit]",–
S=C(Nc1ccc(Nc2ccccc2)cc1)NC1CCCCCC1,active: 15.8 µM,–
CCCCC(=O)NC(Nc1sc2c(c1C(N)=O)CCCC2)(C(=O)OCC)C(F)(F)F (configuration not stated),active: 50.1 µM,–
Cc1ccccc1Nc1nc(CSc2nnc(-c3ccoc3C)n2C)cs1,active: 39.8 µM,–
Cc1ccccc1C(=O)Nc1ccc(N2CCOCC2)nc1,inactive,–
